# Laboratory results: PMC10668032
# The list shows a part of the results. At the low end of the ranking the order means little.
# Biological target: SIX1 homeodomain (reference allele) (UniProt Q15475)
# Assay: universal protein binding microarray
# Conditions: Universal all-10-mer PBM (8x60K, AMADID 030236), 300 nM GST-tagged protein, Alexa Fluor 488 anti-GST; buffer, salt, pH and temperature not stated; high values mean tight binding; most listed sequences are background and not binding sites; double strand, one strand shown
row,Sequence,binding signal [E-score]
1,TCTAGGCA,-0.0567
2,AGACCTTG,-0.169
3,TCAAATGA,-0.0115
4,CGAGTTAG,-0.0111
5,CGCTATTA,0.1
6,GATAGCCA,0.312
7,CGCGTCCC,-0.132
8,AGCCCTGA,-0.0409
9,ACCCCATA,0.279
10,ATGATGAC,0.116
11,ATCATAAC,0.281
12,CACGGAGG,0.0245
13,AATGTAAG,-0.112
14,GCATTAGC,-0.229
15,TAAAATTA,-0.0945
16,CGCGCCAA,-0.314
17,CCAATTCA,0.0559
18,TAAAGTTA,0.0663
19,TCCACGAA,-0.0824
20,CATCCTTA,-0.0782
21,AGTCAACA,-0.263
22,AAACGCGT,-0.129
23,CAATAACA,-0.0178
24,GGTCTCAA,0.114
25,CGCATCCA,0.0872

row,Sequence,binding signal [E-score]
1,GAGTTTCA,-0.163
2,ATCGTGAA,0.0522
3,CGCTAAAG,-0.29
4,AGTAGTGA,0.0217
5,GAAGGATC,0.39
6,GGCGAACC,0.103
7,CTTTAATA,0.121
8,CTGGATCC,0.351
9,ACTATTAA,-0.000405
10,AAGGTGGC,-0.000965
11,GGCCCTCA,-0.19
12,AACGAATA,-0.0519
13,AAATAAAT,-0.114
14,CATTGAAA,-0.17
15,CATCAGCA,-0.0581
16,CGCGCTGC,-0.015
17,AATTGGTG,0.071
18,ACTCTGGA,0.112
19,TAGTTTCA,0.0153
20,ACGGGTCA,0.0556
21,CATGACCC,0.105
22,ATCCTGGC,0.155
23,GCAAGTGC,-0.292
24,GGCATTAA,0.0176
25,AGGTGAGG,-0.145

row,Sequence,binding signal [E-score]
1,ACATGGAG,-0.00485
2,CACGGACC,-0.0507
3,GGAGTCGA,0.0399
4,GCTCTCAA,-0.104
5,AAACGTCG,-0.189
6,ATGGCTCG,0.0426
7,CAAGTCTC,-0.113
8,AACGTGAG,-0.0665
9,ACAGAACA,0.0893
10,ACTTCGCC,-0.0688
11,AAAACGCG,-0.331
12,ACGTGTAA,0.0889
13,ATTCCTAA,0.0604
14,AGGCTAAG,-0.177
15,AGCGGGCG,-0.163
16,CCCGCGGG,0.175
17,TGCGTACA,-0.122
18,CCCCATGA,-0.0463
19,AGCGGCGA,-0.136
20,CCAACCAA,-0.0738
21,GGACCGCC,-0.224
22,GGGTAGTA,0.145
23,GAGTGTGA,0.0623
24,ACGGTTCG,-0.234
25,CCGAGACC,0.0675

row,Sequence,binding signal [E-score]
1,ATAATTAG,0.068
2,GAGAAGTA,0.109
3,ATAGGGAC,0.101
4,CTGATGAC,-0.00919
5,GAAACACC,0.189
6,CAACAAAG,-0.314
7,CGATTGAA,-0.158
8,ATTCCTTC,-0.0876
9,ATCATACG,0.269
10,CTACTGGC,-0.266
11,GGTCTTCA,-0.0923
12,ACACCTAA,0.261
13,AATCAGAT,0.184
14,CAATCAAG,-0.0447
15,ATATTCAG,0.164
16,AAGAGGGT,-0.0551
17,CATCCTGC,-0.0819
18,TGAGATCA,0.33
19,ATGCACAA,-0.0205
20,ACCGCTTA,-0.116
21,TGTATAAA,0.138
22,AATCGCCA,-0.0805
23,ATCACATG,0.269
24,CATTAAGC,-0.0884
25,GGTGGGAA,-0.00853

row,Sequence,binding signal [E-score]
1,ACCACGCT,-0.0225
2,CAAGTGCC,-0.388
3,TAAGGTGA,0.0628
4,ACCCCGCT,0.262
5,CCGCCGAA,-0.0354
6,CGTGTGCC,0.0454
7,GCCCCCAA,-0.332
8,AAACACAA,-0.303
9,ATTTCCGC,-0.147
10,CGGATCGC,0.395
11,AACCCATT,-0.128
12,ACGTACGT,-0.121
13,ATTACCTG,-0.187
14,ACACGTCC,-0.046
15,CCTTTTAC,-0.127
16,AGATTAAA,-0.0404
17,ATATACAA,0.27
18,CCAAGTAA,-0.161
19,ATGAAGTG,-0.122
20,ATGCGTGA,0.161
21,ACACTACT,0.0748
22,TACCGGGA,0.157
23,CACACTCC,-0.0875
24,CTATGGCC,-0.305
25,GATACGGC,0.454

row,Sequence,binding signal [E-score]
1,ACACACTC,0.0334
2,ACGATCTC,0.189
3,AATATCAG,0.225
4,ACCAGGGT,0.189
5,GGTGGAGA,-0.117
6,CCTCCTTC,-0.0167
7,ATCTAACC,0.0231
8,TGTCCAAA,-0.118
9,TCAGTCCA,-0.111
10,AAACCTGG,-0.0842
11,GAAGGTAA,0.0475
12,CACCAAAC,-0.136
13,AAGGTTCT,0.0584
14,CAACATCG,-0.0378
15,AGCAGTAA,-0.0718
16,CAATCCTG,0.0183
17,AGCCTCAG,-0.262
18,CCTATCGA,0.122
19,GGGTACAC,0.236
20,CCGCCAGA,0.00592
21,GGGTGAGA,0.172
22,ATGTGGTC,-0.0279
23,AGGATTAA,0.243
24,GCGCGACA,-0.242
25,GCGATGAC,0.0291

row,Sequence,binding signal [E-score]
1,CACGATGC,-0.031
2,CACATCGG,0.044
3,ATGGATCG,0.345
4,GCAACCCA,-0.0632
5,TGGGATAA,0.176
6,AGTACGCA,-0.267
7,CACCTATC,0.266
8,ACTTAGAA,-0.0764
9,CACACGAC,-0.214
10,CCCATCGG,0.0666
11,ACACTTAG,-0.0202
12,CTCCATTC,-0.0869
13,TAAGTCAA,-0.243
14,GAGCGGTA,0.0188
15,AGGACATG,0.142
16,GACTTATA,-0.023
17,CTCGTAGA,-0.0714
18,AAATGTAC,-0.0169
19,ACTCAGTC,-0.169
20,ACTAGCGG,-0.111
21,CTTGTCAA,-0.183
22,CTAGGGAG,-0.145
